Source: PubChem BioAssay AID1645887 (National Center for Advancing Translational Sciences (NCATS), 2021)
Where “and” joins values, the source holds several entries; their conditions need not be identical. Identical values can stand only once. Hit rate of the full screen: of about 16,000 compounds, about 40 (0.2%) were called active. Inconclusive results (about 1%) are left out. Calls follow the shape of the dose curve; as a rule, active = well fitted activation curve with a large enough effect; inconclusive = small, poorly fitted or top-dose-only effect, or another doubt; inactive = no such curve, though single readings can be large or run the other way. The list shows a part of the results. Starred links: 1 amine or outer side, 2 acyl side, 3 side chain; linkers in the order of their positions; H or OH if unused. Positions of bridges follow the written chain, without caps; N, C: chain ends. Non-standard residues stand in square brackets, D forms with d. Residues, ends and D or L forms follow the SMILES beside them. Chains are numbered I, II in the order given. Actinocin(9to1) = Cc1c2oc3c(C)ccc(C(=O)[*:1])c3nc-2c(C(=O)[*:2])c(N)c1=O; aThr = C[C@H](O)[C@H](N)C(=O)O; NMeV = CN[C@H](C(=O)O)C(C)C; Sar = CNCC(=O)O

target: Rap guanine nucleotide exchange factor 4 (Homo sapiens) (UniProt Q8WZA2); test: Validation qHTS for agonist of cAMP-regulated guanine nucleotide exchange factor 4 (EPAC2); settings: EPAC2 Rap1B BODIPY-GDP exchange, fluorescence; activation: hits give high values;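 also: exchange makes BODIPY-GDP fluorescence drop when released from Rap1B; series mostly up to about 150 µM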
UniProt Q8WZA2, sequence (Q8WZA2 whole entry, looked up): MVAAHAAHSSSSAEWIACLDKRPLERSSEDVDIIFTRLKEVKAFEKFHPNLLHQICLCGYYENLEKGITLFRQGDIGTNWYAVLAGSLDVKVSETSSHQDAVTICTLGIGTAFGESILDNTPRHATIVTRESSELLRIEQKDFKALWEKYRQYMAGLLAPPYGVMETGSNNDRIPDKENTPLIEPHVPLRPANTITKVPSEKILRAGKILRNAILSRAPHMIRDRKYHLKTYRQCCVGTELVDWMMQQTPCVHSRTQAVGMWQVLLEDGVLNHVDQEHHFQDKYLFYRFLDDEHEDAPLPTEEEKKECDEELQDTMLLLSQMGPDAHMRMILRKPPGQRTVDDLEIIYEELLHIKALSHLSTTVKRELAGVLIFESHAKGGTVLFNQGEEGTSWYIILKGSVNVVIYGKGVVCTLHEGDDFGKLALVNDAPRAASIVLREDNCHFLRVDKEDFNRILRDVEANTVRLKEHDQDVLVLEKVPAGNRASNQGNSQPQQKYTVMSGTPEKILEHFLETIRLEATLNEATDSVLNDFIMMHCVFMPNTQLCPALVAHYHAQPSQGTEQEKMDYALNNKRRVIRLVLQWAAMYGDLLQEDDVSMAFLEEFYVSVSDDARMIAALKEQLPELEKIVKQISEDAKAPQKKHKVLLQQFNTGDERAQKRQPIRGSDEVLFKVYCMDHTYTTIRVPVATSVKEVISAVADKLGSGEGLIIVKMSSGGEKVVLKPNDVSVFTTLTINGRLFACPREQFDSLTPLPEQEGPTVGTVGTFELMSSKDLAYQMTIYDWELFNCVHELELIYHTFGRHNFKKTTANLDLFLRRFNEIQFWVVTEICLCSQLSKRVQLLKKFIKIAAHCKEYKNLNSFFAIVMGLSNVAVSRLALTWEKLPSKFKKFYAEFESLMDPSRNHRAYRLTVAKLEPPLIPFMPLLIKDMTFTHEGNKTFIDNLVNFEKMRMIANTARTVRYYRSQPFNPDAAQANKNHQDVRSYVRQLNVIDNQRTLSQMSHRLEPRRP
In short: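 Signal normalized against 6.5 mM cAMP as agonist control. Mix of EPAC2 (100 nM), RAP1B-BODIPY-GDP (250 nM) and GDP (50 uM) was read kinetically at 480/540 nm, every 5 min over 30 min, after 5 min room-temperature incubation with compound.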
% is scaled to controls: 0 for no effect and ±100 for the full control effect.

activation, inactive:
COc1ccccc1-c1cc2c(c(OC)c1)OCCN(C(=O)Cn1nc(-c3ccccc3)c3ccccc3c1=O)C2 -1.72%
C=C[C@@H]1c2cc(C)ccc2N(S(=O)(=O)c2ccc(C)cc2)[C@H](c2ccc(C(=O)OC)cc2)C1(C#N)C#N -13.2%
COc1ccccc1-c1nc(N2CCN(C)CC2)c2ccccc2n1 -10.3%
O=c1cc(-c2ccccc2F)[nH]c2cc3c(cc12)OCO3 -12.3%
O=[N+]([O-])c1ccc(-c2nc(-c3ccc(F)cc3)c(-c3ccncc3)[nH]2)cc1 -12.9%
COC(=O)c1cccnc1 1.22%
CN(C)c1ncc2nc(-c3cc(F)cc(F)c3)c(=O)n(C3CC3)c2n1 4.62%
Cc1ccc(SCCN2CCC(C)CCC2=O)cc1 (stereo not given) -10.3%
Cc1ccccc1-c1cc(N2CCNCC2)ncn1 -11.2%
CCC(C(=O)OCCOCCN(CC)CC)c1ccccc1 (stereo not given) 0.955%
S=C(S)OC1CC2CC1C1CCCC21 (stereo not given) -42%
CC[N+]1(CC(=O)c2ccc(OC)cc2)CCCCC1 -2.07%
CNCCCC1c2ccccc2C=Cc2ccccc21 -24.5% and -11.5%
COc1cccc(-c2cncnc2NCc2ccc(OC)cc2OC)c1 -9.1%
CCNc1ncc2nc(-c3cccs3)c(=O)n(Cc3ccc(F)cc3)c2n1 10.8%
CCOC(=O)C1=C[C@@H](OC(CC)CC)[C@H](NC(C)=O)[C@@H](N)C1 3.48%
O=C(O)CC(O)C(=O)O (stereo not given) -7.55%
COc1ccc(CNc2ccnc(-c3ccccc3CN(C)C)n2)c(OC)c1 -7.06%
Cc1cnc(CNc2nc(-c3ccc(C(=O)N(C)C)cc3)nc3ccccc23)cn1 6.25%
O=c1c(-c2cccs2)nc2cnc(Oc3ccccc3)nc2n1-c1ccccc1 5.26%
CCCCCCC[N+](CC)(CC)CCCCc1ccc(Cl)cc1 0.691%
CCNc1ncc2ncc(=O)n(CCOC)c2n1 9.01%
CCCCCCCCN1[C@@H](CC(=O)OC)c2cc(C(F)(F)F)ccc2S1(=O)=O -24.1%
COc1ccccc1CNc1cc(-c2ccccc2CN(C)C)ncn1 -0.407%
NCCC(O)C(=O)NC1C[C@@H](N)[C@H](O[C@@H]2OC(CN)C(O)C(O)C2O)C(O)[C@H]1O[C@H]1OC(CO)C(O)C(N)C1O (stereo not given in full) -0.102%
O=c1cnc2cnc(Oc3ccccc3)nc2n1CCc1ccccc1 -13.2%
CCC(=O)OC1C2CC3=C4CC(=O)OC(c5ccoc5)[C@]4(C)CCC3[C@@](C)(C2=O)C(CC(=O)OC)C1(C)C (stereo not given in full) -17.6%
C[C@]12CCC(=O)C=C1CC[C@@H]1[C@@H]2[C@@H](O)C[C@@]2(C)[C@H]1CC[C@]2(O)C(=O)CO -26.2%
Cc1cccc2[nH]cc(/C=C3/C=Nc4ccccc43)c12 -18.3%
COCC(=O)N1CCC2(CCN(Cc3cc(C(F)(F)F)cc(C(F)(F)F)c3)CC2)CC1 -24.5%
COc1cccc(-c2cncnc2NCc2cccs2)c1 -19.5%
O=C(NCCc1cccnc1)c1cnn(-c2ncc3c(n2)-c2ccccc2CC3)c1C1CC1 -7.38%
CCCC(=O)Nc1nc2c(ncn2[C@@H]2O[C@H]3COP(=O)(O)O[C@@H]3[C@@H]2OC(=O)CCC)c(=O)[nH]1 -2.88%
CCCc1cc(=O)[nH]c(=S)[nH]1 3.15% and 3.3%
COc1ccc(C(=O)N2CCC3(CC2)CN(c2ccccn2)C3)cc1 -4.93%
Cc1ccc(CN2[C@H]3CCCC[C@@H]3OCCS2(=O)=O)cc1 -16.1%
O=S(=O)(N(Cc1ccccc1)[C@H](CO)Cc1ccccc1)N(Cc1ccccc1)[C@H](CO)Cc1ccccc1 -1.29%
N#CCCn1c(=O)c(-c2ccccc2)nc2cnc(OCc3ccccc3)nc21 -38.8%
Cc1onc(-c2ccccc2)c1-c1ccc(S(N)(=O)=O)cc1 6.78%
O=C(Nc1ccccc1)N1CCCC2(CCN(C(=O)c3cccc(F)c3)CC2)C1 -19.3%
CC1=C(CC(=O)O)c2cc(F)ccc2/C1=C\c1ccc(S(C)=O)cc1 (stereo not given) -4.44% [middle of 4 runs]
O=c1cnc2cnc(N3CCOCC3)nc2n1C1CC1 2.27%
CCC(=O)N[C@@H]1c2ccccc2C2(CCN(Cc3ccccn3)CC2)[C@H]1OC -10.2%
CC(=O)N1CCC2(CCN(Cc3ccc(C#N)cc3)CC2)CC1 -4.05%
CC[N+]1(CC)CCC(=C(c2ccccc2)c2ccccc2)C1C (stereo not given) -9.8%
COCC(=O)N1CCC2(CC1)CN(C(c1ccccc1)c1ccccc1)C2 8.37%
Cc1noc(C)c1-c1cncnc1-n1ccnc1 -10.3%
O=c1cnc2cnc(OCc3ccccc3)nc2n1CCc1ccccc1 2.27%
C[C@H](CCC(=O)NCCS(=O)(=O)O)C1CC[C@H]2C3CC[C@@H]4C[C@H](O)CC[C@]4(C)C3C[C@H](O)[C@]12C (stereo not given in full) -6.07%
CSc1ncccc1C(=O)N1CCc2nnc(C(NC(=O)c3ccoc3)C(C)C)n2CC1 (stereo not given) -8.29%
COCCNc1cc(-c2ccccc2C)ncn1 -23%
COC(=O)c1c(OCc2ccccn2)cc(=O)n2c1CCN(C(=O)c1n[nH]c3c1CCCC3)CC2 -6.32%
CN1CCCC2(CCN(C(=O)c3cc(C(F)(F)F)cc(C(F)(F)F)c3)CC2)C1 -8.94%
COc1ccc(-c2oc3cc(O[C@@H]4OC(CO)C(O)C(O)C4O)c(OC)c(O)c3c(=O)c2OC)cc1O (stereo not given in full) -19.7%
COc1cccc(Nc2ncc3nc(-c4cccs4)c(=O)n(CCC#N)c3n2)c1 6.57%
C[C@H]1CC2C3CCC4=CC(=O)C=C[C@]4(C)[C@@]3(Cl)[C@@H](O)C[C@]2(C)[C@@]1(O)C(=O)CO (stereo not given in full) -42.1%
CC1O[C@@H](O[C@@H]2C(O)C[C@H](O[C@@H]3C(O)C[C@@H](OC4CC[C@@]5(C)C6CC(O)[C@@]7(C)C(C8=CC(=O)OC8)CC[C@@]7(O)C6CC[C@@H]5C4)OC3C)OC2C)CC(O)[C@H]1O (stereo not given in full) 4.41%
COc1ccc(NC2=Nc3ccccc3N[C@@]23C[C@H]2CCCC(=O)N4CC[C@@H](C3)[C@@H]24)cc1 -20.1%
C[N+]1(CCCCC[N+]2(C)CCCC2)CCCC1 -8.77% and -0.0869% and -7.72%
Cc1nc2cncnc2n(Cc2ccc(F)cc2)c1=O -7.41%
COC(=O)[C@@H]1CCCN1Cc1ccc2c(c1)CN(Cc1cc(OC)c3c(c1)OCO3)CCO2 -4.02%
CN(C)Cc1ccccc1-c1ccc2ncnc(NCc3ccccc3)c2c1 -2.71%
CCCN[C@@H]1C(=O)N2C(C(=O)OCCC)=C(C)CS[C@H]12 -24.4%
CN(Cc1cnc2ccccn12)C(=O)c1cc(NC(=O)c2ccccc2)cc2ncn(C3CCCC3)c12 -4.23%
CO/N=C(\C(=O)N[C@@H]1C(=O)N2C(C(=O)OCOC(=O)C(C)(C)C)=C(/C=C\c3scnc3C)CS[C@H]12)c1csc(N)n1 -30.4%
COc1ccc(CN2CCOc3ccc(CN4CCC(Oc5cccnc5)CC4)cc3C2)c(F)c1 -10.7%
Cc1c2oc3c(C)ccc(C(=O)N[C@@H]4C(=O)N[C@@H](C(C)C)C(=O)N5CCC[C@@H]5C(=O)N(C)CC(=O)N(C)[C@@H](C(C)C)C(=O)O[C@H]4C)c3nc-2c(C(=O)N[C@@H]2C(=O)N[C@@H](C(C)C)C(=O)N3CCC[C@@H]3C(=O)N(C)CC(=O)N(C)[C@@H](C(C)C)C(=O)O[C@H]2C)c(N)c1=O (I: [aThr]V[dP][Sar][NMeV] / II: [aThr]V[dP][Sar][NMeV]; ester I:1-I:C, II:1-II:C; linker I:N-II:N via Actinocin(9to1)) -16.7%
CCCCC(=O)O 1% and 4.78%
CN(C)c1ccc(/C=C/c2cc(N(C)C)nc3ccccc23)cc1 -22.1%
c1ccc2c(Cc3c[nH]c4ccccc34)c[nH]c2c1 11.3%
Cc1sc(N)c(C(=O)c2cccc(C(F)(F)F)c2)c1C -27.7%
COc1ccc(OC)c2c(=S)c3ccccc3[nH]c12 -10.2%
CN=C1N[C@H](c2ccccc2)N(c2ccccc2)S1 -21.1%
COc1cccc(Cn2c(=O)c(-c3cc(F)cc(F)c3)nc3cncnc32)c1 -2.55%
Nc1nc(OCc2ccccc2)c2[nH]cnc2n1 -9.95%
Cn1cnc2nc(NCCO)nc(NCc3ccccc3)c21 -9.78%
O=c1[nH]c(=O)c2[nH]c(=O)[nH]c2[nH]1 -2.36% and 6.35%
COCC(=O)Nc1cc(C(=O)N2CC3CCCC2C3)c2c(c1)nc(-c1ccncc1)n2C (stereo not given) -2.61%
Cc1cccc2c(N3CCCC3)nc(CNS(=O)(=O)c3ccccc3F)nc12 -0.576%
O=C(Nc1cccc(F)c1)N1CCCC2(CCN(C(=O)c3ccncc3)CC2)C1 -13.2%
